From PubChem BioAssay AID1347428 (National Center for Advancing Translational Sciences (NCATS), 2020)
Screen size: about 91,000 compounds; about 290 (0.32%) were called active. The shares of active, inactive and inconclusive entries below differ from those in the screen. Calls come from the whole dose curve; as a rule, active = well fitted inhibition curve with a large enough effect; inconclusive = small, poorly fitted or top-dose-only effect; inactive = no such curve, though single readings can be large or run the other way. Potencies beside an inconclusive call are fits to weak or partial responses and may not hold up.

The compounds below were run against Single-stranded DNA cytosine deaminase (Homo sapiens) (UniProt Q9GZX7) (assay: Primary qHTS assay for inhibitors of Activation Induced Cytidine Deaminase (AID): AID signal). Conditions: AID deamination FRET fluorescence, UDG-coupled, 4 h; series mostly up to 115 µM.
Sequence of UniProt Q9GZX7 (Q9GZX7 whole entry, looked up): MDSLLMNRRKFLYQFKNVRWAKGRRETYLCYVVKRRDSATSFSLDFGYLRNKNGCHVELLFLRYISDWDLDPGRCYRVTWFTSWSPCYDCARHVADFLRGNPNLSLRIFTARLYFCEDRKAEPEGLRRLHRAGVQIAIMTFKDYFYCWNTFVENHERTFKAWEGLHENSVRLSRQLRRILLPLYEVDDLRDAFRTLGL
Note: nearly all actives have a fitted effect of over 25% in size.
Potency is the fitted concentration of half-maximal effect; tags give direction and shape of the fitted curve.

SMILES | Potency
Cc1cc(C)c2nc(N3C(=O)C(O)=C(C(=O)c4ccco4)C3c3cccc(O)c3)sc2c1 (stereo not given) | inconclusive: 50.1 µM [inhibitor, partial curve, poor fit]
O=C(NCCc1csc(-c2ccc(F)cc2)n1)c1cccc(F)c1 | inactive
Cc1ccc(C2c3[nH]c4ccccc4c3CCN2C(=O)CSCc2ccc(F)cc2)cc1 (stereo not given) | inconclusive: 50.1 µM [inhibitor, partial curve, poor fit]
CC1CCCN(CCCNC(=O)c2cc3c(Cl)nc4ccccc4c3s2)C1 (stereo not given) | inconclusive: 50.1 µM [inhibitor, partial curve, poor fit]
O=C(NCc1cccs1)c1ccc(CSc2nc3ccncc3n2Cc2ccccc2F)cc1 | active: 79.4 µM
O=C(CN1CCN(C(=O)CCc2ncc(-c3ccccc3F)o2)CC1)Nc1cccc(F)c1 | inactive
Cc1cc2oc(C(=O)N(Cc3ccco3)Cc3ccccc3Cl)c(C)c2cc1C | inconclusive: 39.8 µM [inhibitor, full curve, poor fit]
COc1ccc(-c2nn(C)c(=O)c3ccccc23)cc1NC(=O)c1ccc(Cl)cc1 | inconclusive: 44.7 µM [inhibitor, partial curve, poor fit]
CCc1cccc(C)c1NC(=O)c1cnn(-c2ccc(OC)cc2)c1C1CCN(C(=O)OC(C)(C)C)CC1 | inconclusive: 44.7 µM [inhibitor, partial curve]
COc1ccc(CN(C(=O)c2ccc(C#N)cc2)C2CC2)cc1 | inactive
CC1CCc2onc(C(=O)N3CCN(c4cccc(Cl)c4)CC3)c2C1 (stereo not given) | inconclusive: 44.7 µM [inhibitor, partial curve, poor fit]
CCn1c2ccccc2c2cc(NC(=O)COc3cc(C)ccc3C)ccc21 | inactive
CCOc1ccc(CNC(=O)c2ccc3c(c2)nc2n3CCCCC2)cc1 | inactive
O=C(CSc1nnnn1C1CC1)N1CCN(S(=O)(=O)c2ccc3c(c2)CCC3)CC1 | inactive
O=C1CCCc2nccc(-c3ccccc3)c21 | inactive
O=C(NNS(=O)(=O)c1ccccc1[N+](=O)[O-])c1cccs1 | inactive
COc1ccc(OCC2c3cc(OC)c(OC)cc3CCN2C(=O)c2c(F)cccc2F)cc1 (stereo not given) | inconclusive: 20 µM [inhibitor, full curve, poor fit]
CC1CCCCN1C(=O)CSc1c2c(nc3cc(Cl)ccc13)CCCC2 (stereo not given) | inconclusive: 14.1 µM [inhibitor, full curve, poor fit]
Cc1cc(C)cc(NC(=O)COCc2cc(-c3ccc4c(c3)OCO4)on2)c1 | inconclusive: 15.8 µM [inhibitor, full curve, poor fit]
COc1ccc(C(=O)c2sc(Nc3ccccc3)c(C(N)=O)c2N)cc1 | inactive
CCOC(=O)c1c(N)n(-c2cc(C)cc(C)c2)c2nc3ccccc3nc12 | inactive
Cc1ccc(Cl)cc1N1CCN(C(=O)c2ccc3c(c2)N(Cc2ccccc2)CCS3)CC1 | inconclusive: 8.91 µM [inhibitor, full curve, poor fit]
COc1ccc(-n2c(=O)c3c4c(sc3n(Cc3ccc(C(C)(C)C)cc3)c2=O)CCC4)c(OC)c1 | active: 35.5 µM

SMILES | Potency
COc1ccc(S(=O)(=O)N2CCc3c(c(-c4nnc(SC)n4C)nn3C)C2)cc1 | inactive
Cc1ccc(-c2nc(C(=O)N3CCN(c4ccccc4)CC3)c3n2CCCCC3)cc1 | inconclusive: 22.4 µM [inhibitor, partial curve, poor fit]
CCOC(=O)c1c(NC(=O)COc2ccc(CC)cc2)sc2c1CCCC2 | inconclusive: 79.4 µM [inhibitor, partial curve, poor fit]
Cc1ccc2c(c1)-c1cccc3cccc(c13)C2=O | inactive
Cc1ccc(OCC(=O)Nc2ccc3c(c2)sc(=O)n3C)cc1 | inactive
Cc1ccc(C(=O)COC(=O)c2ccccc2C(=O)c2ccc(-c3ccccc3)cc2)cc1 | inactive
Cc1ccc(-c2nc(CCNc3ncccc3C#N)co2)cc1 | inactive
COc1ccc(NC(=O)Cn2cc(C(=O)c3ccncc3)c(=O)c3cc(C)ccc32)cc1Cl | inactive
CCCCNc1nc(Oc2ccc(=O)n(-c3ccccc3)n2)nc(N(CC)CC)n1 | inconclusive: 10 µM [inhibitor, full curve, poor fit]
CC(OC(=O)Cc1n[nH]c(=O)c2ccccc12)C(=O)c1ccc2c(c1)CCC2 (stereo not given) | inactive
CN1CCN(NC(=O)c2ccccc2Br)CC1 | inconclusive: 100 µM [inhibitor, full curve]
O=C(COc1ccc([N+](=O)[O-])cc1)N1CCC(c2nc3ccccc3s2)CC1 | inconclusive: 25.1 µM [inhibitor, full curve, poor fit]
Cc1ccc(CN(Cc2ccco2)C(=O)COc2cccc(C)c2C)o1 | active: 39.8 µM
Oc1ccc(N=Cc2ccc3ccccc3c2)cc1 | active: 14.1 µM
Cc1cccc(C(=O)NC(C)c2cccs2)c1I (stereo not given) | inactive
CCCn1cc(S(=O)(=O)c2cc(C)ccc2C)c(=O)c2cc(F)c(N3CCN(CC)CC3)cc21 | inconclusive: 79.4 µM [inhibitor, partial curve, poor fit]
Cc1ccc(C)c(C(=O)N2CCC(c3nc4c(nnn4Cc4ccccc4)c(=O)[nH]3)CC2)c1 | inconclusive: 50.1 µM [inhibitor, partial curve, poor fit]
CC(C)Cn1c(SCc2cccc(F)c2)nc2ccsc2c1=O | inconclusive: 89.1 µM [inhibitor, single point]
CCc1ccccc1NC(=O)[C@H](Cc1ccccc1)N1Cc2ccccc2C1=O | inconclusive: 56.2 µM [inhibitor, partial curve, poor fit]
CCN(CC)S(=O)(=O)c1ccc(/C=C/C(=O)OCC(=O)C(C)(C)C)cc1 | inactive
COc1cc(C(=O)NCCSc2c(C)[nH]c3ccccc23)cc(OC)c1OC | inconclusive: 89.1 µM [inhibitor, single point]
Cc1ccc2sc(N(Cc3cccnc3)C(=O)C3=COCCO3)nc2c1C | inconclusive: 79.4 µM [inhibitor, partial curve, poor fit]
